# Results taken from PubChem BioAssay AID1508642 (National Center for Advancing Translational Sciences (NCATS), 2021).
# The whole screen tested about 43,000 compounds, of which about 200 (0.47%) were called active. Not shown: some 12% with an inconclusive outcome. Calls follow the shape of the dose curve; as a rule, active = well fitted cell-killing curve with a large enough effect; inconclusive = small, poorly fitted or top-dose-only effect, or effect the other way; inactive = flat fitted curve, though single readings scatter. Some of the results follow.
# Experiment: Cell viability qHTS assay in S16 Pmp22-F2sN cells; also: nearly all actives have a fitted effect of over 65% in size
# Conditions: S16 Pmp22-F2sN Schwann cells (luciferase reporters placed in the Pmp22 gene) viability, CellTiter-Glo, 24 h; series mostly up to 57.5 µM; activity change, negative = cytotoxicity: at the top concentration
# Procedure, shortened: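 Seed 500-1,000 S16 Pmp22-F2sN cells per well in phenol-red-free DMEM with 10% heat-inactivated FBS; pin-add 23 nL compound; incubate 24 h at 37C; add CellTiter-Glo, wait 15 min protected from light; read luminescence.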
# % is scaled to controls: 0 for no effect and ±100 for the full control effect.
row,Structure (SMILES),"activity change, negative = cytotoxicity"
1,CCOC(=O)c1ccc(CN(Cc2ccc(F)cc2)S(=O)(=O)c2ccc(F)cc2)cc1,inactive: 6.5%
2,CCCOc1ccc(C2c3c(oc4ccccc4c3=O)C(=O)N2c2ccc(C)cn2)cc1OCC (stereo unspecified),inactive: -1.21%
3,Cc1ccc(C)c(NC(=O)Nc2nnc(N(CC(C)C)CC(C)C)s2)c1,inactive: -3.49%
4,O=C(Cn1cc(SCc2cccc(F)c2)c2ccccc21)N1CCCC1,inactive: -4.43%
5,Cc1cc2oc(C(=O)Nc3sc4c(c3C(=O)NCc3ccco3)CCC4)cc(=O)c2cc1C,inactive: 0.64%
6,Cc1ccc2c(CNCc3cccc(Cl)c3)c(C(=O)O)n(Cc3ccc(F)cc3Cl)c2c1,inactive: -1.69%
7,COc1ccc2oc(=O)c(-c3nc(-c4cc(OC)c(OC)c(OC)c4)no3)cc2c1,inactive: 0.724%
8,O=C(CNS(=O)(=O)c1cccs1)N1CCN(c2ccccc2Cl)CC1,inactive: 6.28%
9,COc1cc(OC)c(NS(=O)(=O)c2cc3c(cc2C)NC(=O)CO3)cc1Cl,inactive: 1.27%
10,CC(=O)c1ccc(N2CCN(C(=O)C3CCN(S(=O)(=O)c4ccc(Br)s4)CC3)CC2)cc1,inactive: -4.49%
11,COCCCNC(=O)c1cn(CC(C)C)c(=O)c2c1c1ccccc1n2C,inactive: -12.9%
12,CCN(Cc1ccccc1)C(=O)CCS(=O)(=O)c1cc2c(cc1Cl)NC(=O)CO2,inactive: 9.25%
13,Cc1ccc(NC(=O)c2nc(S(C)(=O)=O)ncc2N(Cc2ccco2)Cc2ccccc2F)c(C)c1,inactive: -1.93%
14,CCCN(Cc1cccs1)C(=O)Nc1cc(C)ccc1OC,inactive: 12.6%
15,COc1ccccc1N1CCN(c2nc3ccc(C(=O)c4ccccc4)cc3n3c(C)nnc23)CC1,inactive: -3.63%
16,CCc1nn(CC(=O)Nc2ccc(C)c(F)c2)c(=O)c2cc3cc(C)ccc3n12,inactive: -3.27%
17,COc1ccc(OC)c(CNC(=O)C2CCN(S(=O)(=O)N3CCCCC3)CC2)c1,inactive: 9.94%
18,CCCCN1CC(c2nc3ccccc3n2CCCCOc2ccccc2C)CC1=O (stereo unspecified),inactive: -16.6%
19,CC(=O)OC1=CN(Cc2ccccc2)S(=O)(=O)c2ccccc21,inactive: -3.57%
20,COc1ccc(OC)c(S(=O)(=O)NCCc2sc(-c3cccnc3)nc2C)c1,inactive: 13.7%
21,CCOc1ccc(-c2nnc(SCC(=O)Nc3ccccc3C(F)(F)F)o2)cc1,inactive: 10.9%
22,O=C(COc1ccc(F)cc1)Nc1ccc2nc(SCC(=O)N3CCCC3)sc2c1,inactive: 4.67%
23,COc1ccccc1N1CCN(C2C(=O)c3ccccc3N2C(C)=O)CC1 (stereo unspecified),inactive: 0.898%
24,Cc1ccc(-c2cn3c(n2)sc2cc(C(=O)NCCC4=CCCCC4)ccc23)c(C)c1,inactive: 4.24%

row,Structure (SMILES),"activity change, negative = cytotoxicity"
1,CCOc1ccc(S(=O)(=O)NCC(c2ccc(N(C)C)cc2)N2CCCC2)cc1 (stereo unspecified),inactive: 8.79%
2,Cc1nc2c(c(C)c1CCC(=O)N1CCN(c3ccccc3)CC1)c(=O)n(C)c(=O)n2C,inactive: 1.7%
3,COc1ccc(C2C=C(c3ccccc3)Nc3nc(NS(=O)(=O)c4ccccc4)nn32)cc1 (stereo unspecified),inactive: 1.91%
4,Cc1cc(C)c(S(=O)(=O)Nc2ccc3oc4c(c3c2)CCCC4)cc1C,inactive: -14.6%
5,CC(CNC(=O)CCn1c(=O)c2cccn2c2ccc(F)cc21)c1ccccc1 (stereo unspecified),inactive: -0.765%
6,CCOC(=O)c1ccccc1NC(=O)CSc1c(C)cnc2c1c(=O)n(C)c(=O)n2C,inactive: 1.46%
7,Cc1ccc(C)c(Cn2c(=O)n(-c3ccc(Cl)cc3)c(=O)c3c4c(sc32)CCC4)c1,inactive: -1.65%
8,COc1ccc(CCNC(=O)C2CC(=O)N(CCc3ccccc3)C2)cc1OC (stereo unspecified),inactive: 4.29%
9,COc1cccc(NC(=O)c2c(-c3ccc(C)cc3)nnc3ccccc23)c1,inactive: -3.37%
10,O=C(Nc1cccc(Cl)c1Cl)c1cc(S(=O)(=O)N2CCCCC2)ccc1F,inactive: -4.41%
11,Cc1cc(F)ccc1NC(=O)Cn1cc(S(=O)(=O)NC(C)C)c(S(=O)(=O)NC(C)C)c1,inactive: -0.0025%
12,CCCCSc1nc2sc3c(c2c(=O)n1-c1ccccc1C)CC(C)(C)OC3,inactive: 16.5%
13,Cc1ccc2onc(CC(=O)N3CCN(c4cccc(Cl)c4)CC3)c2c1,inactive: -9.56%
14,COc1ccc(NC(=O)Cn2c(=O)oc3cc(S(=O)(=O)N4CCCCCC4)ccc32)cc1OC,inactive: -6.47%
15,COc1cccc(C(=O)Nc2c(C(=O)Nc3ccc(F)cc3)oc3ccccc23)c1OC,inactive: 17.8%
16,CCOc1ccc(C(=O)Nc2nnc(SCc3cc(=O)n4ccccc4n3)s2)cc1,inactive: -2.05%
17,Cc1ccc(NC(=O)c2cnc(N3CCCC3)nc2C)cc1F,inactive: -3.18%
18,CCN(Cc1ccccc1)S(=O)(=O)c1cc(Br)cc2c1N(C(=O)C1CC1)CC2,inactive: 8.6%
19,CCOc1ccc(-n2cc(-c3ccccc3)c3c(Nc4cccc(F)c4)ncnc32)cc1,inactive: 24.2%
20,COc1ccc(NC(=O)CNC(=O)Cn2c(C)cc3ccccc3c2=O)c(OC)c1,inactive: 22.2%
21,O=C(c1ccccc1)N1CCN(CCc2ccccn2)CC1,inactive: -0.0815%
22,COc1ccc(N2CCN(Cc3nc4c(c(=O)[nH]c(=O)n4C)n3Cc3ccccc3C)CC2)cc1,inactive: 6.43%
23,Cc1csc2nc(COC(=O)CNC(=O)c3ccccc3)cc(=O)n12,inactive: 8.18%
24,COC(=O)c1ccc(NC(=O)C(=O)NCCc2csc(-c3ccc(F)cc3)n2)cc1,inactive: 0.306%

row,Structure (SMILES),"activity change, negative = cytotoxicity"
1,Cc1ccc(O)c(NC(=O)C2=CC(c3ccco3)=NS(=O)(=O)N2C)c1,inactive: -0.753%
2,O=C(CSc1ncccc1C(=O)Oc1ccccc1Cl)Nc1ccc(C(F)(F)F)cc1Cl,inactive: -2.39%
3,CCN(CC)S(=O)(=O)c1ccc2c(c1)N(CC(=O)Nc1cccc(C#N)c1)C(=O)CO2,inactive: -3.93%
4,CCc1nnc(NC(=O)CSc2nc3c([nH]c4ccccc43)c(=O)n2-c2ccc(Cl)cc2)s1,inactive: 11.4%
5,FC(F)(F)c1cc(-c2ccccc2)nc2cc(-c3ccccc3)nn12,inactive: 0.345%
6,Cc1ccc(CN(C(=O)COc2ccccc2[N+](=O)[O-])c2ccccn2)o1,inactive: 4.01%
7,O=c1oc2ccccc2cc1-c1cn2cc(Cc3cc(Cl)ccc3Cl)sc2n1,inactive: 8.03%
8,CCC(=O)N1CCc2cc(S(=O)(=O)CCC(=O)N3CCN(c4cccc(C)c4C)CC3)ccc21,inactive: 20.9%
9,COc1ccc(CC(=O)Nc2nc3c(s2)CCCC3)cc1,inactive: -6.74%
10,Cc1ccc2c(c1)N(C(=O)CCC(=O)NCc1cccc(F)c1)CC(C)O2 (stereo unspecified),inactive: -0.566%
11,Cc1cccc(C)c1NC(=O)c1cc(S(=O)(=O)N2CCc3ccccc3C2)ccc1F,inactive: -16%
12,CCN(CC)c1ccc2cc(-c3nc4sc5c(c4c(=O)[nH]3)CCC(C(C)(C)C)C5)c(=O)oc2c1 (stereo unspecified),inactive: 24.5%
13,COc1cccc(NC(=O)c2c(C)oc3nc(C)nc(N4CCCC4)c23)c1,inactive: 0.266%
14,CC(=O)c1cccc(NC(=O)c2ccc3nc(Cc4ccccc4)oc3c2)c1,inactive: -2.37%
15,CCn1c(=O)c2sccc2n2c(CCCC(=O)N3CCN(c4ccc(F)cc4)CC3)nnc12,inactive: -1.34%
16,CCCCOc1ccc(C(=O)N(Cc2ccccc2)C2CCS(=O)(=O)C2)cc1 (stereo unspecified),inactive: 8.24%
17,CCOc1ccc(-c2cc3c(=O)n(CC(=O)NCc4ccc(F)cc4)ccn3n2)cc1,inactive: -5.77%
18,O=C(c1ccc(Cl)cc1)n1nc(-c2cccnc2)nc1NCc1ccc(F)cc1,inactive: -2.99%
19,CCOC(=O)c1cccc(NC(=O)CCS(=O)(=O)c2ccc3c(c2)CCN3C(=O)CC)c1,inactive: -6.68%
20,COc1cccc2cc(-c3nc(-c4ccc(Cl)cc4)cs3)c(=O)oc12,inactive: 3.61%
21,COc1ccc(-c2c(C)c3ccc(O)c(CN4CCOCC4)c3oc2=O)cc1OC,inactive: 2.58%
22,COc1cccc(NC(=O)Nc2ccc3c(c2)N(C)C(=O)c2ccccc2S3)c1,inactive: -2.44%
23,CC1CCN(C(=O)Cn2c(-c3cccs3)cc3cc(Cl)ccc32)CC1,inactive: 18.1%
24,CCCCOC(=O)c1c(C)oc2c1cc(NS(=O)(=O)c1cc(OC)ccc1OC)c1ccccc12,inactive: 2.59%

row,Structure (SMILES),"activity change, negative = cytotoxicity"
1,CCOc1ccc(-c2nnc(SCC(=O)Nc3cccc(C#N)c3)o2)cc1,inactive: 15.9%
2,O=C(CN1C(=O)c2ccccc2Sc2ccc(C(=O)N3CCOCC3)cc21)Nc1ccc(Cl)cc1F,inactive: 2.04%
3,CCCN1Cc2cccc(C(=O)Nc3cc(Cl)ccc3C)c2C1=O,inactive: 10.1%
4,Cc1cc(C)c2c(c1)c(C)cc1nnc(SCC(=O)c3ccccc3)n12,inactive: 1.69%
5,Cc1ccc(C)c(NC(=O)C(CC(C)C)N2Cc3ccccc3C2=O)c1 (stereo unspecified),inactive: -12.7%
6,O=C(CSc1nccn1Cc1ccc(F)cc1)NCc1ccco1,inactive: 8.31%
7,COc1ccccc1CNC(=O)CSc1ncc(S(=O)(=O)c2ccc(C)c(Cl)c2)c(=O)[nH]1,inactive: -3.37%
8,COc1ccc(-c2nnc(SCC(=O)N3CCC(C)CC3)o2)cc1,inactive: -7.32%
9,COc1ccc(-c2nnc(C3CCN(S(=O)(=O)c4cccc(Cl)c4)CC3)o2)cc1,inactive: -21.7%
10,CNC(=O)C1CCC(Cn2c(=O)c3sccc3n(CC(=O)N3CCCC(C)C3)c2=O)CC1 (stereo unspecified),inactive: -1.13%
11,COCCCNC(=O)C1CCN(Cc2cc3ccccc3n2Cc2cccc(C)c2)CC1,inactive: -15.9%
12,COc1ccc(S(=O)(=O)N2Cc3ccccc3CC2C(=O)Nc2ccc(C)cc2)cc1OC (stereo unspecified),inactive: -0.758%
13,COc1ccc(CCNC(=O)CCCn2c(=O)c3ccccc3n(Cc3ccccc3)c2=O)cc1OC,inactive: 4.09%
14,COc1cccc(CNC(=O)C(=O)NCC(c2cccs2)S(=O)(=O)c2ccccc2)c1 (stereo unspecified),inactive: -16.1%
15,O=S(=O)(c1ccc(F)cc1)N1CCC(Oc2cccc(C(F)(F)F)c2)CC1,inactive: -10%
16,COc1c(Cl)cc(Cl)cc1C(=O)Nc1cccc(-c2nc3ccccc3o2)c1C,inactive: 3.07%
17,CCn1c(COc2ccc(Cl)cc2Cl)nc2ccccc21,inactive: 2.84%
18,CCc1ccccc1NC(=O)c1cn(C)c(=O)c2ccccc12,inactive: 15.1%
19,CCOC(=O)CC(NC(=O)Cn1nnc(-c2ccccc2Cl)n1)c1ccc(OC)cc1 (stereo unspecified),inactive: -24.6%
20,Cc1ccc(C)c(NC(c2ccccc2)c2nnc(-c3ccccc3F)o2)c1 (stereo unspecified),inactive: -21.4%
21,Clc1ccc(CCNc2nc3cc(Cl)c(Cl)cc3n3cnnc23)cc1,inactive: 7.18%
22,COc1ccc(CCN2C(=O)N(c3cccc(C)c3)C(=O)C2CC(=O)Nc2ccccc2)cc1OC (stereo unspecified),inactive: -1.6%
23,Cc1cccc(CCNC(=O)c2cc(S(=O)(=O)N3CCCCC3)c[nH]2)c1,inactive: -14%
24,Cc1cccc(N2CCN(C(=O)c3ccc4c(c3)N(Cc3ccccc3)C(=O)c3ccccc3S4(=O)=O)CC2C)c1 (stereo unspecified),inactive: 4.28%
